# Source: PubChem BioAssay AID662 (National Center for Advancing Translational Sciences (NCATS), 2007)
# The whole screen tested about 71,000 compounds, of which about 1,800 (2.5%) were called active. This list was built around the results that the source calls inconclusive (neither active nor inactive); the mix of calls is not that of the screen. Calls come from the whole dose curve; as a rule, active = well fitted activation curve with a large enough effect in the signal ratio, with a control signal flat (not every such curve was filed as active); inconclusive = small, poorly fitted or top-dose-only effect, or effect the other way, or a change in a side signal; inactive = flat fitted curve, though single readings scatter; the % refers to the signal ratio. Where the call is inconclusive, the potency comes from a doubtful curve fit.
# Assay: Cell signaling CRE-BLA (Fsk stim); for activity change, negative = inhibition: % of control where 0% means no effect
# Details: CHO CRE-bla reporter (cAMP response element driving beta-lactamase), forskolin EC10, beta-lactamase ratio; activity change, negative = inhibition: at 38.2 µM (top of the series) unless noted
# How it was run: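 CRE-bla CHO reporter cells treated with compound titration plus EC10 NKH 477 (water-soluble forskolin), incubated 3 h at 37 °C; CCF4 loading 2 h at room temperature, 460/530 nm emission ratio read, AC50 values derived for positive or negative modulators.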
# Potency is the fitted concentration of half-maximal effect; tags give direction and shape of the fitted curve.
SMILES,Potency,"activity change, negative = inhibition"
O=S1(=O)Nc2c(ccc3cccnc23)-c2ccccc21,"inconclusive: 2.51 µM [falling, full curve]",
COc1cccc(-c2noc(C3CCCN(S(=O)(=O)c4cccc(Cl)c4C)C3)n2)c1 (centres undefined),,inactive: -1.07%
Cc1n[nH]c(=O)nc1NCC1CCCO1 (centres undefined),"inconclusive: 3.98 µM [rising, single point]",
O=C(CCn1c(=O)oc2ccccc21)Nc1ccon1,,inconclusive: -18.6%
Cn1c(=O)c2c(nc(Cc3ccccc3)n2CC(=O)O)n(C)c1=O,,inactive: -12% [at 7.6 µM]
CCN1C(=O)CC(n2c(C)nc3ccccc32)C1=O (centres undefined),"inconclusive: 2 µM [falling, partial curve]",
Cc1cc(N2CCCC2)n2nc(C)nc2n1,active: 12.6 µM,
CCC(=O)c1cc2c(cc1NC(=O)C(C)C)OCCO2,"inconclusive: 10 µM [rising, single point]",
COc1cc2cc(C(c3nnnn3C3CCCC3)N(C)C3CCCCC3)c(=O)[nH]c2cc1OC (centres undefined),active: 12.6 µM,
Cn1c(=O)[nH]c(=O)c2c1nc(N1CCCCC1)n2CCOc1ccccc1,,inconclusive: 15.3%
CC(=O)n1nc(-c2ccccc2)nc1NCc1ccc(F)cc1,,inconclusive: -28.1%
CCC(=O)c1cc2c(C)cc(=O)oc2c(C)c1O,active: 2 µM,
CC(C)CN1CCC2(CC1)CCN(C(=O)c1cccc(F)c1)CC2,,inactive: -2.38%
O=C(O)c1ccncc1.O=C(O)c1ccncc1.[Cl][Pt]([Cl])([Cl])[Cl],,inactive: 8.35% [at 7.6 µM]
CCOC(=O)c1cnc(SCC(=O)Nc2ccc(NC(=O)CC)c(OC)c2)nc1N,"inconclusive: 12.6 µM [rising, single point]",
CCCCCC(=O)Nc1ccc2oc(-c3cccnc3)nc2c1,"inconclusive: 1 µM [rising, full curve, poor fit]",
COc1ccc(CNc2ccnc(-c3ccc4c(c3)OCO4)n2)c(OC)c1,,inactive: 11.7%
O=C(Cc1ccccc1)Nc1ccc(CN2CCOCC2)cc1,,inactive: 5.23%
CCCCOC(=O)CCn1c(=S)oc2ccccc21,,inconclusive: 19.7%
O=C(CSc1ncn[nH]1)c1ccc2c(c1)OCO2,,inactive: -9.24%
CCc1cccc(C)c1NC(=O)CSc1nc2ccccc2n1CC(=O)N(C)C,,inconclusive: 15.9%

SMILES,Potency,"activity change, negative = inhibition"
c1ccc(Cn2nnc3c(Nc4ccc5c(c4)OCO5)nc(C4CC4)nc32)cc1,active: 12.6 µM,
COc1ccc(C2C3=C(CCCC3=O)Nc3nc(C(F)(F)F)nn32)c(OC)c1OC (centres undefined),,inconclusive: 4.87%
CC(=O)Cn1c(CN2CC(C)CC(C)C2)nc2c1c(=O)n(C)c(=O)n2C (centres undefined),"inconclusive: 0.631 µM [rising, single point]",
CCc1nc(OCCN(CC)CC)c2oc3ccccc3c2n1,,inconclusive: 20.6%
O=C(CSc1ncn(-c2ccccc2)n1)Nc1nc2c(s1)CCCC2,"inconclusive: 15.8 µM [rising, single point]",
O=C1N(CN2CCN(c3cccc(Cl)c3)CC2)c2ccccc2C12OCCCO2,,inconclusive: -11.4%
CC(C)NC(=O)N1CC[C@@]2(CCCN(C(=O)Oc3ccccc3)C2)C1,,inactive: -3.94%
Cc1nc2cnc(Oc3cccc(Cl)c3)nc2n(C[C@H]2CCCO2)c1=O,,inconclusive: 23.1%
O=C(OCC(=O)N1CCOCC1)c1ccc[nH]c1=O,,inconclusive: 7.7%
COC(=O)c1ccc(NC(=O)CSc2nnc(Cc3cccn3C)n2-c2ccc(F)cc2)cc1,,inconclusive: -26.2%
COc1cc(C2C3C(=O)N(Cc4ccccc4)C(=O)C3ON2c2ccccc2)cc(OC)c1O (centres undefined),"inconclusive: 12.6 µM [rising, single point]",
CC(=O)N1CCN(c2ccc(NC(=O)c3ccc4c(c3)OCO4)cc2)CC1,,inactive: 2.97%
COc1cc(NC(=O)c2ccco2)c(OC)cc1NC(=O)CSc1ncc(-c2ccc(F)cc2)[nH]1,"inconclusive: 10 µM [rising, single point]",
O=C(CCc1nc(-c2ccccc2)no1)NCc1ccco1,,inactive: -7.29%
Cc1cccc(NC(=O)C2CCCN2S(=O)(=O)c2cccc3cccnc23)c1 (centres undefined),,inactive: -6.01%
CC1(C)CC(C)(O)P(=O)(c2ccccc2)O1 (centres undefined),,inconclusive: 24.1% [at 7.6 µM]
CC(C)C12CC[C@@]3(CC[C@H]4[C@@](C)(CCC[C@]4(C)C(=O)O)[C@@H]3C1)[C@@H](CN)C2,,inactive: -10.7% [at 7.6 µM]
O=C(Nc1ccc2oc(-c3ccncc3)nc2c1)c1ccccc1F,"inconclusive: 5.01 µM [rising, single point]",
O=C(C1CCN(c2ccc(N3CCOCC3)nn2)CC1)N1CCc2ccccc2C1,,inconclusive: -5.83%
CCN1C(=O)c2cccc3c(NC(=O)C4CCCCC4)ccc1c23,"inconclusive: 5.01 µM [rising, partial curve]",
CCNc1ncc2nc(-c3ccc(Cl)cc3)c(=O)n(C[C@H]3CCCO3)c2n1,active: 6.31 µM,

SMILES,Potency,"activity change, negative = inhibition"
Cn1cccc1C(=O)N1CCC2(CCCN(C(c3ccccc3)c3ccccc3)C2)CC1,,inconclusive: 25.7%
COC(=O)Cn1cc(C(=O)C2CC2)c2ccccc21,,inactive: 2.95%
Cc1ccc(C)c(S(=O)(=O)NCCOC(=O)Nc2sc(=S)n(C)c2C)c1,,inconclusive: -9.93% [at 7.6 µM]
COc1ccc(-c2nnc(NC(=O)c3ccc(S(=O)(=O)N4COCC4(C)C)cc3)o2)cc1,"inconclusive: 12.6 µM [falling, partial curve]",
COc1cc(OC)nc(NC(=O)CN2CCN(c3ccc(F)cc3)CC2)n1,,inconclusive: 0.243%
Cc1ccc(NC(=O)CS(=O)CC(=O)Nc2ccc3c(c2)OCO3)cc1Cl (centres undefined),,inactive: -18.3%
O=C(O)/C=C(/c1ccccc1)C(F)(F)F,,inactive: -3.41%
COc1ccc2cc3cc(C(=O)NCc4ccccn4)oc3nc2c1,"inconclusive: 15.8 µM [rising, single point]",
Nc1ccc(C(=O)OCc2nc3ccccc3[nH]2)cc1,,inactive: 1.7%
O=C(CSc1nc2ccccc2c(=O)n1CC1CCCO1)NCC1CCCO1 (centres undefined),,inactive: -9.74%
O=C1CCCC2=C1C(c1cccs1)n1ncnc1N2 (centres undefined),,inactive: -1.96%
COCCn1c(=O)c(-c2cc(F)cc(F)c2)nc2cnc(N(C)C)nc21,active: 10 µM,
COC(=O)c1cccc(CSc2nnc(C)s2)c1,,inconclusive: -0.408%
CC1CN(CCc2ccccc2)c2nc3c(c(=O)[nH]c(=O)n3C)n2C1 (centres undefined),"inconclusive: 12.6 µM [rising, partial curve, poor fit]",
C[C@@]12CCC(=O)C=C1CC[C@H]1[C@@H]2[C@@H](O)C[C@]2(C)[C@@H]1CC[C@@]2(O)C(=O)COC(=O)C1CCCC1,,inactive: -7.85% [at 7.6 µM]
CC(OC(=O)c1nn(C)c(=O)c2ccccc12)C(=O)NCc1ccc2c(c1)OCO2 (centres undefined),,inconclusive: 29.5%
COc1ccc(NC(=O)C2CCN(c3cc(-c4ccccc4)nc4ncnn34)CC2)cc1OC,,inactive: -5.68%
Cc1cc(C)nc(Sc2c(C)nn(-c3ccccc3)c2C)n1,,inconclusive: 22.9%
CCOc1ccc(NC(=O)C(CC)NC(=O)c2ccccc2CO)cc1 (centres undefined),,inconclusive: -19%
CC(C)C(=O)Nc1ccc(NC(=O)c2cc3ccccc3o2)cc1,,inactive: -3.95%
CCOC(=O)C1CCN(C(=O)c2cc3cc4cc(OC)ccc4nc3o2)CC1,,inconclusive: 26.7%

SMILES,Potency,"activity change, negative = inhibition"
CC1=C(C(=O)OC2CCCCC2)C(c2cccnc2)n2ncnc2N1 (centres undefined),,inconclusive: 12.9%
N=c1c(C(=O)NCc2ccco2)cc2c(=O)n3ccccc3nc2n1Cc1ccccc1,active: 10 µM,
N#Cc1c(NCCCO)nc(NCc2ccccc2)c2c1CCN(Cc1ccccc1)C2,,inactive: -23%
COC(=O)c1[nH]c2cccc(C)c2c1NC(=O)CN1CCN(c2ccccc2OC)CC1,,inactive: 6.44%
CC(=O)Nc1c(C(=O)C2CC2)oc2ccccc12,"inconclusive: 12.6 µM [rising, partial curve]",
CCc1cc(C(=O)Cc2ccc(F)cc2)c(O)cc1O,,inconclusive: -14.2%
CCC(=O)N1CCN(c2ccc(Cl)cc2NC(=O)c2ccc(Br)o2)CC1,,inactive: 1.31%
COc1ccc(-c2nc(N3CCOCC3)nc3n[nH]c(N)c23)cc1,,inactive: -12.4%
Cc1cc(N2CCN(C3CCCC3)CC2)n2ncc(-c3ccccc3)c2n1,,inactive: -3.99%
CCN1CCN(C(=O)c2cc3nc(-c4ccccc4)cc(C(F)(F)F)n3n2)CC1,,inconclusive: 17.2%
Cc1cc(C)n(-c2ccc(C(=O)NC3=NCCS3)cc2)n1,,inactive: 17.5%
CC(=O)N1C2(C=CC1(C)C(=O)NCc1ccc(C)o1)CCCCC2 (centres undefined),"inconclusive: 12.6 µM [falling, single point]",
Cc1cc(NC(=O)c2noc3c2CCCC3)nn1Cc1ccc(Cl)cc1,,inconclusive: 24.8%
Cc1nnc(SCc2cc(=O)n3[nH]cnc3n2)s1,"inconclusive: 25.1 µM [rising, single point]",
CCOCCCNC(=O)CCNS(=O)(=O)c1ccc(C)cc1,,inconclusive: -15.8%
COc1ccc(CCNC(=O)CCCn2c(SCC#N)nc3ccccc3c2=O)cc1OC,,inconclusive: 28.2%
O=[N+]([O-])c1cc(C(F)(F)F)ccc1Cl,,inactive: 0.645%
C=CCn1c(=O)c(C(=O)Nc2ccccc2OC)c(O)c2ccccc21,,inconclusive: 8.15% [at 7.6 µM]
COc1ccc(S(=O)(=O)N2CCN(c3ccc4nnc(-c5ccc(F)cc5)n4n3)CC2)cc1,"inconclusive: 10 µM [rising, single point]",
COc1ccc(C[C@H](C)NC[C@@H](O)c2ccc(O)c(NC=O)c2)cc1,,inconclusive: -30.1%
COC(=O)c1ccc(COc2ccc(C3C4=C(CCCC4=O)Nc4onc(C)c43)cc2)cc1 (centres undefined),,inconclusive: 8.09%
